Laboratory results: PubChem BioAssay AID485344 (National Center for Advancing Translational Sciences (NCATS), 2010)
Screen size: about 340,000 compounds; about 6,900 (2%) were called active. No stated cut-off is given here; in the data, active means inhibition above about 30%; inactive means below that, where a call was filed. This is a selection; strong and weak results do not stand in their true shares. Entries without a call were filed so in the source.

Each compound was assayed against D(2) dopamine receptor (Homo sapiens) (UniProt P14416) (assay: HTS Assay for Allosteric Antagonists of the Human D2 Dopamine Receptor: Primary Screen for Antagonists). Conditions: HEK293 TREx D2 cells, calcium flux, dopamine EC80; at 10 µM; stronger effect = higher value.
UniProt P14416, sequence (P14416 whole entry, looked up): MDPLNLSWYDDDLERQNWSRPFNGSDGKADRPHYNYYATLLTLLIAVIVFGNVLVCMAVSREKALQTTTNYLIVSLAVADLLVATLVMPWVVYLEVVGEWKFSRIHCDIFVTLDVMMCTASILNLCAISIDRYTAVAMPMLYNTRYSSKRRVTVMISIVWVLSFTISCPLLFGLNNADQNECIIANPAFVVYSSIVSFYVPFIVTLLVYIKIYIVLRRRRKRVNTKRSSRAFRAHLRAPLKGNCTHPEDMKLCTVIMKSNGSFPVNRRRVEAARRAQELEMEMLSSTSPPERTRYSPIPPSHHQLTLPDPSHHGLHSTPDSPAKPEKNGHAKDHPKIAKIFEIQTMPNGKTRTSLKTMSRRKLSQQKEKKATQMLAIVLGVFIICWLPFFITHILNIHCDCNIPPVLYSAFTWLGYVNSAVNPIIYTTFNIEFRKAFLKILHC
Outline: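 Overnight-induced (tetracycline, 30 C) HEK293 T-REx cells carrying force-coupled D2 receive a no-wash calcium dye, then compound, then EC80 dopamine at 180 s; signals are read kinetically throughout.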
Further: 0% is about no effect.

First: CSCCC(NS(=O)(=O)c1cccs1)C(=O)Nc1ccc(C)c(Cl)c1 (stereo unspecified)
Second: CC(=O)N1CCc2cc(S(=O)(=O)NC(CC(C)C)C(=O)NCCc3ccccc3)ccc21 (stereo unspecified)
The inhibition of the first is higher: 1.16% for the first, -8.9% for the second.

First: CCc1ccccc1Nc1ncnc2c1cnn2-c1ccc(Cl)cc1
Second: COc1ccc(Cl)cc1NC(=O)c1ncn(-c2ccccc2)n1
The inhibition of the first is higher: 0.0401% for the first, -3.81% for the second.

First: CC(=O)c1ccc(NC(=O)CSc2nnc(NC(=O)Nc3ccccc3)s2)cc1
Second: Cc1cc2ccccc2n2c(SCC(=O)Nc3cccc(C(F)(F)F)c3)nnc12
The inhibition of the first is higher: 13.9% for the first, 3.49% for the second.

First: COc1ccc(OC)c(NC(=O)Cc2c(C)n(C(=O)c3ccc(Cl)cc3)c3ccc(OC)cc23)c1
Second: CCOC(=O)c1ccc(NC(=O)CSc2nccn2Cc2ccc(OC)cc2)cc1
The inhibition of the first is higher: 13.8% for the first, 1.76% for the second.

First: CC(C)C(=O)N1c2nc(C(C)C)nn2C2(CCCCC2)[C@@H]2CCCC[C@@H]21
Second: Cc1cccc(S(=O)Cc2ccc(C(=O)NC3CCCCCC3)o2)c1 (stereo unspecified)
The inhibition of the first is higher: 15.5% for the first, -1.62% for the second.

First: Cc1cc(C)c2c(=O)cc(CSc3nnc(-c4ccccc4)n3C)[nH]c2c1
Second: Cc1ccc(Nc2nc3ccccc3c3nnc(C)n23)cc1Cl
The inhibition of the first is lower: -3.34% for the first, 3.39% for the second.

First: COc1cc(-c2nnc(SCC(=O)Oc3ccccc3)o2)cc(OC)c1OC
Second: COc1ccccc1Nc1ncc(C(=O)Nc2ccc(OC)c(OC)c2)c2ccccc12
The inhibition of the first is higher: 6.05% for the first, -9.82% for the second.

Going from `COc1ccc(OC)c(Nc2ncc3c(n2)CCN(Cc2cc(OC)c(OC)c(OC)c2)C3)c1` to `COc1ccc(NC(=O)NCC2CCN(Cc3ccccc3F)CC2)c(OC)c1`, the inhibition rises from 4.55% to 14.1%.

Compared with `COc1cc(OC)c(NC(=O)N2CCN3CCCCC3C2)cc1Cl` (stereo unspecified), `COC(=O)c1cc(S(=O)(=O)N2CCN(c3ccc(F)cc3)CC2)cn1C` is higher in inhibition: 7.47% for the first, 18% for the second.

First: CC(C)(C)c1cc(C(C)(C)C)c2oc(=O)c(-c3nc4ccc(C(=O)O)cc4[nH]3)cc2c1
Second: CCc1ccc(NC(=O)c2sc3nc(C)c(Cl)c(C)c3c2NC(=O)c2ccccc2)cc1
The inhibition of the first is higher: 22.6% for the first, 0.401% for the second.

First: CC1CCN(Cc2c(O)ccc3c(=O)c(-c4ccc(Cl)cc4)c(C(F)(F)F)oc23)CC1
Second: Cc1ccc(CN2CCN(C3CCN(C(=O)c4ccc(C)cc4)CC3)C(=O)C2=O)cc1
The inhibition of the first is lower: -4.24% for the first, 3.98% for the second.

Compared with `COc1ccc(Cl)cc1NC(=O)CCN1C(=O)c2ccccc2Sc2ncccc21`, `COC(=O)c1cc(NC(=O)c2ccc3c(c2)N(Cc2cccc(Cl)c2)C(=O)c2ccccc2S3=O)cc(C(=O)OC)c1` (stereo unspecified) is higher in inhibition: -7.51% for the first, -1.79% for the second.

Compared with `CCOC(=O)c1ccccc1NC(=O)CSc1cc(C)[nH]c(=O)n1`, `CCCn1c2ccccc2c2cnn(CC(=O)Nc3ccc(C)cc3Br)c(=O)c21` is higher in inhibition: -0.523% for the first, 0.901% for the second.

First: Cc1ccc(-n2nc3c(N4CCC(C(=O)NCCc5ccccc5C)CC4)nnc(C)c3c2C)cc1
Second: CC(=O)c1cccc(NC(=O)c2c(C)nn(-c3ccc(F)cc3)c2-n2cccc2)c1
The inhibition of the first is lower: -2.56% for the first, -0.521% for the second.

Going from `CCc1ccccc1NC(=O)N1CCC2(CC1)Oc1ccccc1C(=O)N2Cc1ccccc1F` to `O=C(c1ccc2c(c1)N(Cc1ccccc1)C(=O)c1ccccc1S2=O)N1CCC(Cc2ccccc2)CC1` (stereo unspecified), the inhibition falls from 15.1% to -0.306%.

Compared with `CCCC(CCC)C(=O)Nc1cccc(-c2nc3cccnc3s2)c1`, `COc1ccc2nc(N(Cc3cccnc3)C(=O)COc3ccccc3)sc2c1` is lower in inhibition: 12.8% for the first, -14.6% for the second.

First: CC(=O)Nc1ccc(NS(=O)(=O)c2ccc3[nH]c4c(c3c2)CCCCC4)cc1
Second: Cn1cc(C(=O)NCCc2ccc(Cl)cc2)c(=O)c2cc(S(=O)(=O)N3CCCCC3)ccc21
The inhibition of the first is higher: -1.2% for the first, -1.73% for the second.

Compared with `CCOc1ccc(C(=O)NCC(c2ccc3c(c2)OCO3)N2CCN(c3ccc(F)cc3)CC2)cc1` (stereo unspecified), `COc1ccc(CCN2C(=O)N(c3ccc(F)cc3)C(=O)C2CC(=O)Nc2ccc(OC)cc2)cc1` (stereo unspecified) is lower in inhibition: 16.3% for the first, 13.4% for the second.

Compared with `Cc1ccc(Nc2ncnc3c2nc2n3CCCC2)c(Br)c1`, `Cc1ccc(C(=O)Nc2ccc(C(=O)OCc3cc(=O)n4c5c(sc4n3)CCCC5)cc2)cc1` is higher in inhibition: -11.7% for the first, -9.82% for the second.

Compared with `COc1ccccc1CNC(=O)c1cnc2sc(N3CCOCC3)nn2c1=O`, `CCOc1ccccc1NC(=O)c1cnc(N2CCOCC2)c2ccccc12` is higher in inhibition: -0.723% for the first, -0.673% for the second.

Compared with `COc1ccccc1CNC(=O)c1ccc2c(c1)CCN2S(=O)(=O)c1ccc(Cl)cc1`, `COC(=O)c1ccc(Cn2nnc3c(=O)[nH]c(C4CCCN(S(=O)(=O)c5ccccc5)C4)nc32)cc1` (stereo unspecified) is lower in inhibition: 10% for the first, -0.647% for the second.

First: CCc1cccc(C)c1NC(=O)C1=C(C)C(=O)OC12CCC(C)CC2 (stereo unspecified)
Second: Cc1cc(C)cc(C(=O)Nc2nnc3n2CCS3)c1
The inhibition of the first is higher: 14.8% for the first, -17.5% for the second.

Going from `CCCOc1ccc(C2=NC(c3ccc(F)cc3)=Nc3ccc(OC)cc3N2)cc1` to `COc1ccc(OCc2nc3c4c(-c5ccc(OC)cc5)c(-c5ccc(OC)cc5)oc4ncn3n2)cc1`, the inhibition rises from 5.36% to 28.2%.

Going from `Cc1c(-c2ccccc2)n(-c2ccccc2O)c2nc3c(c(=O)n(C)c(=O)n3C)n12` to `CCCCCN1C(C(=O)c2ccccc2)=C(NC(C)=O)c2ccccc2S1(=O)=O`, the inhibition falls from 7.31% to -15.4%.

Going from `O=S(=O)(c1ccc(-c2cnc(C3CC3)o2)cc1)N1CCN(c2cccc(Cl)c2)CC1` to `CCOc1ccccc1C(=O)Nc1cc(-c2ccc(C)cc2)no1`, the inhibition falls from 13.6% to -2.48%.

Compared with `O=C(CSc1ncc2c(n1)-c1cc(Cl)ccc1N(Cc1ccccc1F)S2(=O)=O)Nc1cccc(C(F)(F)F)c1`, `COc1ccc(C)cc1NC(=O)CCNS(=O)(=O)c1cccc2nonc12` is lower in inhibition: 1.05% for the first, -0.186% for the second.

For `CNc1oc(-c2ccc(COc3ccc(C)cc3)o2)nc1C#N`, the inhibition was -6.86%.

With `CC(C)c1ccc(OCC(O)CN2CCN(c3ccccn3)CC2)cc1` (stereo unspecified) the inhibition was active: 74.5%.
With `Cc1cnc(C(=O)Nc2ccccc2-c2nnn(CC(=O)NC3CCCC3)n2)cn1` the inhibition was active: 30.4%.
`CC(Oc1ccc(Br)cc1)C(=O)NNC(=O)CCN1CCN(c2ccccc2)CC1` (stereo unspecified) was tested, and the inhibition was active: 61.5%.
With `COC(=O)c1ccccc1NC(=O)Nc1cccs1` the inhibition was active: 37.9%.
With `CCCCN1C(=O)C(O)(CC(=O)c2ccccc2OC)c2ccccc21` (stereo unspecified) the inhibition was active: 33.1%.
For `O=S(=O)(c1ccc(SCCOc2cccc(Br)c2)nc1)N1CCCC1`, the inhibition was active: 42.3%.
`CCCCC(=O)NNC(=S)NC(=O)C(c1ccccc1)c1ccccc1` was tested, and the inhibition was active: 40.2%.
`CCCc1cc(C(=O)Nc2ccc(F)c(Cl)c2)no1` was tested, and the inhibition was active: 35.1%.
